Whole data set: some 110,000 compounds, median “z-score” near -0.1, cut for the highest 2% near 2. Some of the results follow. Active and inactive are the calls of the source.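 Rule for the calls: active = z-score in the third read window above 3 or below -3; inactive = the rest.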
Biological target: Metabotropic glutamate receptor 8 (Rattus norvegicus) (UniProt P70579)
Experiment: rat mGluR8 modulators via GIRK flux, primary screen, cell-based, thallium flux, HTS (AID 488969)
Settings: HEK293 rat mGluR8, GIRK (G protein-gated inwardly rectifying potassium channel) thallium flux, FluoZin2; at 10 µM; stronger effect = higher value; submaximal glutamate (EC20) added with thallium

UniProt P70579, sequence (P70579 whole entry, looked up): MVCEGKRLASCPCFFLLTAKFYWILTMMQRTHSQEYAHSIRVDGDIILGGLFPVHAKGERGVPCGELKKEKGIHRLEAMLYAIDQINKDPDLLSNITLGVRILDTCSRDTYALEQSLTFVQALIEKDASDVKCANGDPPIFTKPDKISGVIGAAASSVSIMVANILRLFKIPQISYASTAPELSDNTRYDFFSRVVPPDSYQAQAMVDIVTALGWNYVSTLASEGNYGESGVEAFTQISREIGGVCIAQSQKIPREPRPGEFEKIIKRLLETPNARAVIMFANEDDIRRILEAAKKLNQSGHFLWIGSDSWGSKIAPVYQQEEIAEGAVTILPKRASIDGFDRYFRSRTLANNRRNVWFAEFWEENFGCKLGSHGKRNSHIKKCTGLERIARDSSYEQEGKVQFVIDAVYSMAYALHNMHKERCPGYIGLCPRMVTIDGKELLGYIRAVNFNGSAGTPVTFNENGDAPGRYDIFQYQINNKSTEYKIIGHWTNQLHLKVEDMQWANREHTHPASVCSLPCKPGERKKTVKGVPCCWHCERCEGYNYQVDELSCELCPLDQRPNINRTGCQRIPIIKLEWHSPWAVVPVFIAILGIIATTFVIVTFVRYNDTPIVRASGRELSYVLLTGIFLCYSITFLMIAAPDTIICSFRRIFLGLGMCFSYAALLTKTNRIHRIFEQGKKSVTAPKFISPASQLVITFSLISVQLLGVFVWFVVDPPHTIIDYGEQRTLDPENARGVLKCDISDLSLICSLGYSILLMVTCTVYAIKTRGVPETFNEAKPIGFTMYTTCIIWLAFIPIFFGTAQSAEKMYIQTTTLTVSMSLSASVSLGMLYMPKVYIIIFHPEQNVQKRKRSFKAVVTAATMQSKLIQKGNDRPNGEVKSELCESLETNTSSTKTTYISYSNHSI

Row | SMILES | z-score
1 | CNC(=O)CSc1nnc(-c2ccco2)n1-c1ccccc1OC | 0.514
2 | O=C(N/N=C/c1cc([N+](=O)[O-])ccc1O)c1ccc2c(c1)OCCO2 | -0.00564
3 | Cc1cccc(C)c1NC(=O)C(NC(=O)c1ccccn1)c1ccccc1[N+](=O)[O-] (stereo not drawn) | 0.95
4 | CC(C)(C)c1ccc(C(=O)N2CCC(C(=O)NCc3ccco3)CC2)cc1 | -0.417
5 | CCOC(=O)c1cc(-c2ccccc2)sc1NC(=O)CC | 0.0214
6 | COc1cc(OC)c(NC(=O)Cn2cccc2)cc1Cl | 0.35
7 | CCN(CC)C(=O)CC(c1ccc(F)cc1)c1ccc(OC)cc1 (stereo not drawn) | -0.0671
8 | O=C(c1cc(N2C(=O)C3C4CCC(C4)C3C2=O)ccc1Cl)N1CCN(c2ccccc2)CC1 (stereo not drawn) | -1.15
9 | O=C(Nc1cccnc1)c1ccc(COCC(F)(F)F)cc1 | 0.122
10 | O=C(Nc1ccccc1C(=O)NCc1ccccc1)c1ccco1 | -0.398
11 | CCCn1c(=O)[nH]c(=O)c2c1nc(-c1ccc(OC(F)F)c(OC)c1)n2CCOC | -0.472
12 | CC(C)(C)OC(=O)N1CCC[C@H]1c1nnc(SCc2ccccc2Cl)o1 | -0.184
13 | CCCCSc1ncc(C(=O)OCC)c(N)n1 | -0.0829
14 | Cc1cc(SCC#N)n2nc(C)c(-c3ccccc3)c2n1 | -0.478
15 | O=C(Nc1ccc(Oc2cccc3ccccc23)cc1)c1ccco1 | 0.993
16 | COc1ccc(OC)c(C2=Nn3c(nnc3-c3cccc(OC(C)C)c3)SC2)c1 | -0.26
17 | CC1CCc2nc(NC(=O)C3COc4ccccc4O3)sc2C1 (stereo not drawn) | 0.408
18 | CS(=O)(=O)N1CCN(Cc2ccc(C(F)(F)F)cc2)CC1 | 0.0896
19 | COc1ccc(CNC(=O)C(NC(C)=O)C(=O)Nc2ccc(OC)cc2)cc1 (stereo not drawn) | -0.149
20 | O=c1c2cc(Br)ccc2[nH]c(=S)n1Cc1cccnc1 | 1.87
21 | O=C(CSc1nc(-c2cccs2)cc(C(F)(F)F)n1)Nc1cc(OCC(F)(F)C(F)F)cc([N+](=O)[O-])c1 | -0.0314
22 | O=c1[nH]c(=O)n(Cc2ccco2)c2c1C(C(F)(F)F)(C(F)(F)F)N=C(Cc1ccccc1)N2 | -0.122
23 | CCOC(=O)CSc1nc2ccccc2c(=O)n1CC | -0.267

Row | SMILES | z-score
24 | Cc1nnc(C)c2c(C)n(C(C)c3ccccc3)c(C)c12 (stereo not drawn) | -0.326
25 | CC(=O)n1c2c(c3ccccc31)OC(N)=C(C#N)C2c1ccc(C(C)C)cc1 (stereo not drawn) | 0.195
26 | COCCCn1c(SCC(=O)Nc2nnc(C)s2)nnc1-c1ccoc1C | 0.236
27 | COc1ccc(C(=O)CC(=O)C(=O)NCCc2cccc(C)c2)cc1 | active: 3.99
28 | Cn1c(CNC(=O)c2ccco2)nnc1SCC(=O)N1c2ccccc2Sc2ccccc21 | -0.312
29 | Cc1ccc(C2=NC(C)(C)N=C2SCC(=O)Nc2ccc(Cl)cc2)cc1 | -0.142
30 | CC(=O)C1C(c2ccc(OC(F)F)cc2)NC(=O)NC1(O)C(F)(F)F (stereo not drawn) | -0.346
31 | CCOc1cc(-n2ncc(C#N)c2N)nc(SC)n1 | 0.205
32 | CC(C)CC(=O)c1c[nH]c(C(=O)NCCc2ccccn2)c1 | -0.112
33 | COc1ccccc1CNC(=O)CCC(=O)Nc1nnc(C)s1 | -0.122
34 | CCOC(=O)c1c(NC(=O)CN2CCCc3ccccc32)sc(C)c1CC | -0.409
35 | CCCCn1c(S(=O)(=O)O)nc2ccccc21 | -0.0451
36 | CC1(C(=O)NC2CCCCCCC2)CCC(=O)N1CCN1CCOCC1 (stereo not drawn) | 0.242
37 | Cc1nnc(NC(=O)CSc2nnc(Cc3cccn3C)n2-c2ccccc2)s1 | -0.55
38 | Cc1nn(Cc2ccc(Cl)c(Cl)c2)c(C)c1NC(=O)c1cc(-c2ccc3c(c2)OCO3)on1 | -1.04
39 | O=C(/C(=N\Nc1ccc(Br)cc1)Sc1nnnn1-c1ccccc1)c1ccccc1 | 0.0937
40 | COc1ccccc1NC(=O)C(Sc1ccccc1)c1ccccc1 (stereo not drawn) | 0.792
41 | Cc1nnc(NC(=O)c2ccc(Br)cc2)s1 | -0.102
42 | O=C(O)CCn1c(=S)oc2ccccc21 | -0.181
43 | CC(=O)Nc1ccc(S(=O)(=O)NC2(C(F)(F)F)C(=O)Nc3c2c(=O)[nH]c(=O)n3Cc2ccccc2)cc1 (stereo not drawn) | 0.395
44 | Cc1c(-c2nnnn2-c2ccc(F)cc2)cnc2cc3c(cc12)OCO3 | 0.0261
45 | CCOC(=O)c1sc2nccc(N(C)C)c2c1N=CNOCc1ccccc1 | -0.0223
46 | Cc1cc(C)n(-c2ccn(Cc3ccc(Cl)cc3Cl)c(=O)n2)n1 | -0.157

Row | SMILES | z-score
47 | COc1ccc(-c2nc3c(=O)n(C)c(=O)[nH]c3n2CCc2ccccc2)cc1 | -0.516
48 | Cc1ccc(C)c(-n2nnnc2SCC(=O)Nc2cccc(-c3nnc4n3CCCCC4)c2)c1 | active: -3.95
49 | CCn1cc(S(=O)(=O)CC(=O)Nc2ccc(C)cc2)c2ccccc21 | -0.393
50 | CCn1c(CNc2ccc(C)cc2)nnc1SCC(N)=O | 0.124
51 | COc1ccc(Cn2c(-c3ccc(OC)cc3)nc3ccccc32)cc1 | -1.46
52 | O=C(COC(=O)c1ccccc1C(=O)N1CCN(c2ccc(F)cc2)CC1)NCc1ccccc1 | -0.352
53 | Cc1ccc(N2C(=O)[C@@H]3[C@H](C2=O)C2c4ccccc4C=CN2[C@@H]3C(=O)c2ccco2)c(C)c1 (stereo partly drawn) | 0.293
54 | Cc1ccccc1Oc1nc2c(C)cccn2c(=O)c1/C=C(\C#N)C(=O)Nc1c(C)n(C)n(-c2ccccc2)c1=O | -0.477
55 | COc1ccccc1CNC(=O)CS(=O)Cc1nc(-c2ccccc2C)oc1C (stereo not drawn) | -0.598
56 | Cc1ccc(NC(=O)C(OC(=O)c2ccc(C=O)cc2)c2ccccc2)cc1Cl (stereo not drawn) | 0.187
57 | COc1cc(C(O)P(=O)(OCC(C)C)OCC(C)C)cc(OC)c1OC (stereo not drawn) | -0.245
58 | c1ccc(-c2ccc3c(c2)c2c4n3CCN=C4CCC2)cc1 | 0.505
59 | Cc1ccc(-n2c(-c3cc(C)n(C)n3)n[nH]c2=S)cc1 | -0.289
60 | O=C(C(c1ccccc1)c1ccccc1)N1CCCc2ccccc21 | 0.0643
61 | Cc1ccc(-c2cc(-c3ccccc3)c3c(N)c(S(C)(=O)=O)sc3n2)cc1 | 0.593
62 | Cn1c(-c2c(N)n(-c3ccccc3)c3nc4ccccc4nc23)nc2ccccc21 | 0.268
63 | Cc1occc1C(=O)N/N=C/c1cccs1 | 0.00925
64 | CCOC(=O)CCc1c(C)c2ccc(OCC)c(C)c2oc1=O | -0.544
65 | COc1cc(Cl)c(C)cc1NC(=O)COC(=O)c1cnc(C)cn1 | -1.27
66 | O=C(Cn1c(=O)oc2ccccc21)N(Cc1ccccc1)C1CCS(=O)(=O)C1 (stereo not drawn) | -0.0425
67 | CCc1ccc(/C=N/NC(=O)c2cc(C)on2)s1 | -0.145
68 | CCOc1ccc(N(CC(=O)NCC2CCCO2)S(=O)(=O)c2ccc(OC)c(OC)c2)cc1 (stereo not drawn) | 0.0613
